# Assay results as given in the supplement of paper PMC4967469.
# A lower IC50 marks a more sensitive line; fits outside the tested doses are given as limits. The AUC spans the tested range (256-fold, ending at the top dose) of the same fit; the more sensitive the line, the further below 1. Any top dose called inferred comes from the curve model; the source does not state it.
# What was measured:
# [1] = compound: O=C(/C=C/c1cccnc1)NCCCCC1CCN(C(=O)c2ccccc2)CC1 [FK866]; experiment: Viability of human cancer cell lines after 72 h of drug (GDSC screen); details: top dose 1 µM; top dose inferred
# Protocol: (§1)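 Human cancer cell lines in 384-well plates, medium with 10% serum, drug for 72 h over a 256-fold dose range (nine 2-fold or five 4-fold steps up to the top dose). Adherent lines were fixed and stained with the nucleic acid dye Syto60, suspension lines read with resazurin; signal relative to control wells, capped at 0 and 100%. One two-parameter sigmoid per drug and line, fitted in a mixed model over all curves with the slope shared within a line.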
# [2] = compound: Nc1[nH]nc2nnc(-c3c(-c4ccccc4)nn4ccccc34)cc12 [FR-180204]; experiment: as above; details: top dose 20 µM; top dose inferred
# Protocol: as §1
Cell Line,AUC [1],IC50 [1] [nM],AUC [2],IC50 [2] [nM]
"8-MG-BA (glioma, adherent)",0.059,< 3.91,0.98,> 20000
"22RV1 (prostate, adherent)",0.685,236,0.916,> 20000
"42-MG-BA (glioma, adherent)",0.125,< 3.91,0.97,> 20000
"451Lu (melanoma, adherent)",0.842,657,0.977,> 20000
"639-V (bladder, adherent)",0.989,> 1000,0.991,> 20000
"647-V (bladder, adherent)",0.37,27.2,0.986,> 20000
"697 (lymphoblastic leukaemia, suspension)",0.014,< 3.91,0.954,> 20000
"769-P (kidney, adherent)",0.433,40.3,0.978,> 20000
"786-0 (kidney, adherent)",0.297,17.7,0.975,> 20000
"5637 (bladder, adherent)",0.794,411,0.979,> 20000
"8305C (thyroid, adherent)",0.972,> 1000,0.954,> 20000
"8505C (thyroid, adherent)",0.337,21.4,0.971,> 20000
"23132-87 (stomach, adherent)",0.107,< 3.91,0.974,> 20000
"A3-KAW (B-cell lymphoma, suspension)",0.045,< 3.91,0.972,> 20000
"A4-Fuk (B-cell lymphoma, suspension)",0.104,< 3.91,0.986,> 20000
"A101D (melanoma, adherent)",0.714,293,0.959,> 20000
"A172 (glioma, adherent)",0.104,< 3.91,0.977,> 20000
"A204 (rhabdomyosarcoma, adherent)",0.254,9.79,0.961,> 20000
"A253 (head and neck, adherent)",0.432,41,0.988,> 20000
"A375 (melanoma, adherent)",0.134,6.11,0.951,> 20000
"A388 (skin, adherent)",0.832,778,0.981,> 20000
"A427 (non-small cell lung carcinoma, adherent)",0.092,< 3.91,0.977,> 20000
"A431 (skin, adherent)",0.798,454,0.978,> 20000
"A498 (kidney, adherent)",0.883,> 1000,0.972,> 20000

Cell Line,AUC [1],IC50 [1] [nM],AUC [2],IC50 [2] [nM]
"A673 (rhabdomyosarcoma, adherent)",0.055,< 3.91,0.982,> 20000
"A704 (kidney, adherent)",0.811,511,0.984,> 20000
"ABC-1 (lung adenocarcinoma, adherent)",0.969,> 1000,0.959,> 20000
"ACHN (kidney, adherent)",0.561,94.1,0.94,> 20000
"ALL-PO (lymphoblastic leukaemia, suspension)",0.13,< 3.91,0.774,8300
"ALL-SIL (T-cell leukaemia, suspension)",0.023,< 3.91,0.686,3800
"AM-38 (glioma, semi-adherent)",0.176,6.39,0.912,> 20000
"AMO-1 (haematopoietic neoplasm, suspension)",0.023,< 3.91,0.968,> 20000
"AN3-CA (endometrium, adherent)",0.274,13.3,0.982,> 20000
"ARH-77 (myeloma, suspension)",0.216,9.57,0.981,> 20000
"ASH-3 (thyroid, adherent)",0.987,> 1000,0.988,> 20000
"ATN-1 (T-cell lymphoblastic leukaemia, suspension)",0.144,5.41,0.977,> 20000
"AsPC-1 (pancreas, adherent)",0.588,128,0.924,> 20000
"BB49-HNC (head and neck, adherent)",0.376,24.8,0.973,> 20000
"BB65-RCC (kidney, adherent)",0.334,19.9,0.983,> 20000
"BC-1 (B-cell lymphoma, suspension)",0.162,7.29,0.978,> 20000
"BCPAP (thyroid, adherent)",0.218,10.4,0.97,> 20000
"BE2-M17 (neuroblastoma, adherent)",0.072,< 3.91,0.977,> 20000
"BE-13 (lymphoblastic leukaemia, suspension)",0.023,< 3.91,0.937,> 20000
"BEN (non-small cell lung carcinoma, adherent)",0.94,> 1000,0.979,> 20000
"BFTC-905 (bladder, adherent)",0.224,11.4,0.976,> 20000
"BFTC-909 (kidney, adherent)",0.356,25.3,0.984,> 20000
"BHT-101 (thyroid, adherent)",0.557,90.1,0.958,> 20000
"BHY (head and neck, adherent)",0.741,306,0.965,> 20000

Cell Line,AUC [1],IC50 [1] [nM],AUC [2],IC50 [2] [nM]
"BICR10 (head and neck, adherent)",0.689,232,0.985,> 20000
"BICR22 (head and neck, adherent)",0.662,189,0.983,> 20000
"BICR78 (head and neck, adherent)",0.589,114,0.967,> 20000
"BL-41 (Burkitt lymphoma, suspension)",0.994,> 1000,0.981,> 20000
"BPH-1 (prostate, adherent)",0.453,45.8,0.902,> 20000
"BT-20 (breast, adherent)",0.95,> 1000,0.983,> 20000
"BT-474 (breast, adherent)",0.917,> 1000,0.957,> 20000
"BT-483 (breast, adherent)",0.956,> 1000,0.969,> 20000
"BV-173 (chronic myeloid leukaemia, suspension)",0.031,< 3.91,0.977,> 20000
"Becker (glioma, adherent)",0.399,31.8,0.963,> 20000
"BxPC-3 (pancreas, adherent)",0.682,216,0.967,> 20000
"C2BBe1 (large intestine, adherent)",0.86,> 1000,0.94,> 20000
"C3A (liver, adherent)",0.794,483,0.988,> 20000
"C32 (melanoma, adherent)",0.942,> 1000,0.987,> 20000
"C-4-I (cervix, adherent)",0.327,19.6,0.984,> 20000
"C-33-A (cervix, adherent)",0.143,4.8,0.967,> 20000
"CA46 (Burkitt lymphoma, suspension)",0.042,< 3.91,0.985,> 20000
"CADO-ES1 (Ewing sarcoma, suspension)",0.987,> 1000,0.961,> 20000
"CAKI-1 (kidney, adherent)",0.643,190,0.949,> 20000
"CAL-12T (non-small cell lung carcinoma, adherent)",0.375,27.1,0.956,> 20000
"CAL-27 (head and neck, adherent)",0.082,< 3.91,0.97,> 20000
"CAL-29 (bladder, adherent)",0.225,9.15,0.969,> 20000
"CAL-33 (head and neck, adherent)",0.4,33.3,0.973,> 20000
"CAL-39 (cervix, adherent)",0.87,989,0.978,> 20000

Cell Line,AUC [1],IC50 [1] [nM],AUC [2],IC50 [2] [nM]
"NCI-H508 (large intestine, semi-adherent)",0.918,> 1000,,
"NCI-H835 (lung carcinoid, suspension)",0.2,8.58,,
"NCI-H929 (myeloma, suspension)",0.031,< 3.91,,
"NCI-H1105 (small cell lung carcinoma, suspension)",0.272,16.2,,
"NCI-H1341 (small cell lung carcinoma, suspension)",0.395,33.6,,
"NCI-H1650 (lung adenocarcinoma, adherent)",0.806,714,,
"NCI-H2066 (small cell lung carcinoma, adherent)",0.975,> 1000,,
"NCI-N87 (stomach, adherent)",0.723,363,,
"PWR-1E (prostate, adherent)",0.853,776,,
"RCH-ACV (B-cell leukaemia, suspension)",0.016,< 3.91,,
"RH-18 (rhabdomyosarcoma, adherent)",0.884,> 1000,,
"SCC90 (head and neck, adherent)",0.49,58.1,,
"SK-GT-2 (stomach, adherent)",0.984,> 1000,,
"SK-MEL-31 (melanoma, adherent)",0.971,> 1000,,
"SKM-1 (haematopoietic neoplasm, suspension)",0.075,< 3.91,,
"STS-0421 (soft tissue, adherent)",0.817,683,,
"SUP-B8 (B-cell leukaemia, suspension)",0.974,> 1000,,
"TC-YIK (cervix, suspension)",0.148,6.27,,
"U-266 (myeloma, semi-adherent)",0.818,841,,
"VMRC-LCD (lung adenocarcinoma, adherent)",0.737,258,,
"ZR-75-30 (breast, adherent)",0.981,> 1000,,
